This is one part of the list. These are further read-outs of the screen, such as a control signal, another cell line or another target. No call is given for them.

We go through 29 compounds from PubChem BioAssay AID1745853 (National Center for Advancing Translational Sciences (NCATS), 2022).

Holding throughout (assay): Primary Screen for Target Class Profiling of Small Molecule Inhibitors of Methyltransferases
Experiment [1] deals with Glycine N-methyltransferase (Homo sapiens) (UniProt Q14749). The settings on record: purified enzyme, MTase-Glo SAH luminescence; measured here: GNMT inhibition; at 40 µM; stronger effect = lower value. In a few lines:
(§1)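 Each enzyme was assayed with SAM and its substrate. SAH formation detected by MTase-Glo luminescence; single-point 40 uM screen[…].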

Experiment [2] concerns the target Guanidinoacetate N-methyltransferase (Homo sapiens) (UniProt Q14353). As to conditions: purified enzyme, MTase-Glo SAH luminescence; measured here: GAMT inhibition; at 40 µM; stronger effect = lower value. In a few lines: as §1
Experiment [3] has as its target Histamine N-methyltransferase (Homo sapiens) (UniProt P50135). As to conditions: purified enzyme, MTase-Glo SAH luminescence; measured here: HNMT inhibition; at 40 µM; stronger effect = lower value. In a few lines: as §1
The target of experiment [4] is Nicotinamide N-methyltransferase (Homo sapiens) (UniProt P40261). The settings on record: purified enzyme, MTase-Glo SAH luminescence; measured here: NNMT inhibition; at 40 µM; stronger effect = lower value. In a few lines:
as §1

In experiment [5] the target is Phenylethanolamine N-methyltransferase (Homo sapiens) (UniProt P11086). The settings on record: purified enzyme, MTase-Glo SAH luminescence; measured here: PNMT inhibition; at 40 µM; stronger effect = lower value. In a few lines: as §1
On the % scale 0 is the no-effect control and ±100 the full control effect.

On to `O=C(CCc1nnn2c1CN(C(=O)NCCc1ccccc1)CC2)NC1CC1`, for which the activity change, negative = inhibition was -0.2% in experiment [1]; 0.832% in experiment [2]; -4.28% in experiment [3]; 0.49% in experiment [4]; -0.809% in experiment [5].
`Oc1ccc2c(-c3c(-c4ccccn4)nn4c3CCC4)ccnc2c1`: the activity change, negative = inhibition in experiment [1] was -2.72%; in experiment [2], -2.56%; in experiment [3] it was -18.6%; in experiment [4], -27.9%; in experiment [5] it was -10.6%.
Taken in the same sequence, the figures for `CC(C)OCCCNC(=O)c1ccc2c(=O)[nH]c3c(C(=O)NC4CCCC4)sc(=S)n3c2c1` were -18.5%, 3.57%, -4.47%, -28.2% and -15.3%.
For the compound `CC[C@H]1OC(=O)[C@H](C)[C@@H](O[C@H]2C[C@@](C)(OC)[C@@H](O)[C@H](C)O2)[C@H](C)[C@@H](O[C@@H]2O[C@H](C)C[C@H](N(C)C)[C@H]2O)[C@](C)(O)C[C@@H](C)/C(=N/OCOCCOC)[C@H](C)[C@@H](O)[C@]1(C)O`, the activity change, negative = inhibition in experiment [1] was 7.07%; in experiment [3], 8.77%.
As to `C[C@@H]1CN(C(=O)c2cnc3sccn3c2=O)C[C@@]1(O)C1CCC1`, the activity change, negative = inhibition is -5.57% in experiment [1]; -3.79% in experiment [2]; -1.06% in experiment [3]; -3.06% in experiment [4]; -2.52% in experiment [5].
As to `COc1ccc2cc3n(c2c1)CC(C)(C(=O)NC1CCCCCC1)N(CCCN1CC(C)CC(C)C1)C3=O` (stereo not given), the activity change, negative = inhibition in experiment [1] was 4.33%; in experiment [2] it was -0.293%; in experiment [3] it was 6.59%; in experiment [4], 9.9%; in experiment [5], -2.96%.
Taken in the same sequence, the figures for `CN1CCCCCCN(C(=O)Cn2c(=O)oc3ccccc32)[C@H]2CCC[C@H]2C1=O` were -5.82%, -3.6%, -0.412%, -2.94% and -0.187%.
Consider `NC(=O)c1sc(-c2ccsc2)cc1N`, for which the activity change, negative = inhibition in experiment [2] is 2.33%; in experiment [4] it was -13.3%; in experiment [5], -6.4%.
As for `CCCn1c(=O)c2cc(F)ccc2n2c(SCc3ccccc3Cl)nnc12`, the activity change, negative = inhibition in experiment [1] is -21%; in experiment [2] it was 4.1%; in experiment [3] it was -1.43%; in experiment [4] it was -9.88%; in experiment [5], 1.72%.
As to `CCNC(=O)c1noc(-c2cc(Cl)c(O)cc2O)c1-c1ccc(OC)cc1`, the activity change, negative = inhibition in experiment [1] is 0.105%; in experiment [2] it was 1.5%; in experiment [3] it was 4.35%; in experiment [4] it was -16.7%; in experiment [5] it was -3.52%.
As for `Nc1nc2c(c(N3CCNCC3)n1)CCC1=C2[C@@H]2CCCC[C@@H]2O1`, the activity change, negative = inhibition is -4.09% in experiment [1]; 5.55% in experiment [2]; -4.39% in experiment [3]; -22.6% in experiment [4]; 1.36% in experiment [5].
Turning to `CCCCCCCCCCC(C)(C)C(=O)Nc1c(OC)cc(OC)cc1OC`, the activity change, negative = inhibition in experiment [1] is -18.3%; in experiment [2] it was 7.63%; in experiment [3] it was -4.45%; in experiment [4] it was -8.26%; in experiment [5] it was 6.13%.
Taken in the same sequence, the figures for `CCN(CC)CCCN1C(=O)c2cc3occc3n2CC1(C)C(=O)NC1CCCCCCC1` (stereo not given) were 2.58%, 0%, 1.76%, 6.26% and -0.251%.
Taken in the same sequence, the figures for `Cc1ccc(CNC(=O)CSc2nnc3n(CCC(C)C)c(=O)c4ccccc4n23)cc1` were 3.54%, 0%, 10.9%, 0.055% and 3.24%.
Taken in the same sequence, the figures for `N#CN1CCC[C@@H](n2nc(-c3ccc(Oc4ccc(F)cc4F)cc3)c(C(N)=O)c2N)C1` were -7.61%, 6.48%, 6.26%, -15.5% and 1.68%.
Turning to `CC1(C(=O)NC2CCCC2)Cn2c(ccc2-c2ccco2)C(=O)N1Cc1ccco1` (stereo not given), the activity change, negative = inhibition was -16.1% in experiment [1]; 3.4% in experiment [2]; -2.37% in experiment [3]; -3.01% in experiment [4]; -2.61% in experiment [5].
Taken in the same sequence, the figures for `CCC[C@H]1CN(Cc2c(C)noc2C)C[C@@H]1NC(=O)C1CCOCC1` were -1.56%, -0.924%, 1.25%, -5.73% and 0.266%.
Taken in the same sequence, the figures for `CC(O)C(=O)/C=C/C=C/C(=O)OC1C=C2COC(=O)C2(O)C2(C)CCCC(C)(C)C12` (stereo not given) were 2.23%, 4.88%, 5.45%, -6.61% and 4.85%.
In the same order, the values of `COC(=O)CNC(=O)c1nc(-c2ccccc2OC)c2cnccn12` are -8.99%, -4.85%, -11.5%, -11.7% and -1.64%.
In the case of `COc1ccc(-c2cc3n(n2)CC(C)(C(=O)NC2CCCCC2)N(Cc2ccc(F)cc2)C3=O)cc1` (stereo not given), the activity change, negative = inhibition in experiment [1] is -1.24%; in experiment [2], 1.95%; in experiment [3] it was -0.683%; in experiment [4], -4.08%; in experiment [5], -8.98%.
In the same order, the values of `CC(C)CNC(=O)c1ccc2c(=O)n(C(C)C)c3nn(CC(=O)c4ccccc4)c(=O)n3c2c1` are 5.64%, 1.02%, 11%, 3.5% and 6.16%.
In the same order, the values of `CN=C(N)NCCC[C@H](N)C(=O)O` are 2.52%, 13.4%, 2.92%, -2.77% and 4.82%.
In the same order, the values of `CC(C)NC(=O)c1ccc2c(=O)n(Cc3ccccc3)c3nnc(SCC(=O)NC4CCCC4)n3c2c1` are 3.53%, 4.39%, 7.87%, -0.328% and 2.46%.
On to `CC1(C(=O)NC2CCCC2)Cn2c(nc3ccccc32)C(=O)N1Cc1ccc2c(c1)OCO2` (stereo not given), for which the activity change, negative = inhibition is -0.218% in experiment [1]; 1.63% in experiment [2]; -4.34% in experiment [3]; 2.11% in experiment [4]; -3.3% in experiment [5].
In the case of `COc1ccc(C2=NOC(C(=O)N3CCN(c4ccc(F)cc4)CC3)C2)cc1` (stereo not given), the activity change, negative = inhibition was -5% in experiment [1]; 0% in experiment [2]; 0.348% in experiment [3]; -0.725% in experiment [4]; -4.91% in experiment [5].
In the same order, the values of `Cc1ccc(CN2CCC3(CC2)CC(c2ccccc2)C(=O)N3C)cc1F` (stereo not given) are -7.14%, -15.2%, -5.5%, -23.9% and -9.17%.
In the same order, the values of `CCOC(=O)c1cc2n(n1)CC(C)(C(=O)NC1CCCCC1)N(c1ccc(Cl)cc1C)C2=O` (stereo not given) are 0.59%, 4.82%, 0.836%, -0.717% and -2.29%.
Consider `CC(C)(O)c1ccn2c(-c3ccc(F)c(-c4ccc(F)cc4C#N)c3)cnc2c1F`, for which the activity change, negative = inhibition was -2.26% in experiment [1]; 10.1% in experiment [2]; 0.422% in experiment [3]; -42.2% in experiment [4]; -3.12% in experiment [5].
`CC(C)(OC1OC(CO)C(O)C(O)C1O)C1CCC(O)(CO)C2CC(O)C(C)(O)C2C1` (stereo not given): the activity change, negative = inhibition in experiment [1] is 1.89%; in experiment [2], 6.08%; in experiment [3] it was 10.6%; in experiment [4], -6.67%; in experiment [5], 5.65%.
